This is an account of results in the supplement of paper PMC10126150.

Values marked as one replicate rest on one cluster of the flow cell; about a third of the high ones do not repeat.
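Further: ATP exposure 15 min at 22 °C before imaging.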

In this data set the test system is ATP. The data set can be described thus: switch fluorescence ratio, 500 uM ATP over buffer (Cy3 cluster intensity, sum of 5 cycles each) (fold (ratio)); higher = stronger signal-on switching upon ATP binding; sequences stand for … in TCGTCGGCAGCGTCAGATGTGTATAAGAGACAGTTTTTTTTTTTTTTTTTTTTTTTTT…TC. The settings on record: aptamer strand: ATP DNA aptamer (quencher-CACCTGGGGGAGTATTGCGGAGGAAGG + anchor), 100 nM annealed; ATP concentration: 500 uM; one replicate. Summed up:
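Five buffer/ATP imaging cycles were run on Cy3-labelled switching-strand clusters on a modified Illumina MiSeq flow-cell, with NaOH stripping and re-annealing between cycles. In each cycle, clusters annealed to 100 nM quencher-labelled ATP aptamer were imaged in selection buffer, then after 15 min with 500 uM ATP at 22 °C. Per cluster, the fluorescence ratio is summed target-cycle over summed buffer-cycle Cy3 intensity, averaged per switch-domain sequence. Only clusters within 100-1000 RFU were kept.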
Regarding CGGGTATTT, the switch fluorescence ratio stood at 0.969. As to TCACATCTAA, the switch fluorescence ratio amounted to 1.03. As to ATATGGATCG, the switch fluorescence ratio came to 0.937. Then TTGGTTAGTG, with 0.974. With GGATAATTTC the figure was 0.972.

As for GCCGGTTAGC, the switch fluorescence ratio turned out to be 0.968. GTCCATGGTA: the switch fluorescence ratio stood at 1.02. Regarding GGGACCTTCA, the switch fluorescence ratio came out at 2.14. For the sequence GATTAAGGGG, the switch fluorescence ratio came to 0.979. Regarding GGAGCTATCG, the switch fluorescence ratio stood at 1.26. TAGCAAGGAG: the switch fluorescence ratio was 1.13. Regarding ACCACTAAGT, the switch fluorescence ratio came out at 1.04. Consider TGGGTCTTTC, for which the switch fluorescence ratio is 1.03. With AGATATGTAT, the switch fluorescence ratio amounted to 0.958. Turning to AACACGCAT, the switch fluorescence ratio turned out to be 1.32. With CTGGAGGG the figure was 1; with CAATGGGAGC, 0.987; with AGCAAATGT, 1.03. Regarding TTTCCGGTG, the switch fluorescence ratio amounted to 1.46. TCATCAATC: the switch fluorescence ratio was determined as 1.1. With AAGTTGTCAG the figure was 1.03; with CACGGTCGTT, 1.03. Take TAAGCTCATT: the switch fluorescence ratio was found to be 1.01. Regarding AATCTACGGT, the switch fluorescence ratio is 0.989. Regarding ATGCTACATA, the switch fluorescence ratio is 1.04.

For the sequence TCTGTAGAGG, the switch fluorescence ratio was found to be 0.988. On to GTGGATAGAC, for which the switch fluorescence ratio came out at 0.986. With TAGACTACTA the figure was 1.04. Regarding GGCCGGGTTT, the switch fluorescence ratio was found to be 0.997.

GAGTCGCGAG: the switch fluorescence ratio is 1.11. Turning to TAAGGAGTCT, the switch fluorescence ratio amounted to 0.932.

Take GCTCTTACTG: the switch fluorescence ratio was found to be 0.989. CTGCATGTGG: the switch fluorescence ratio turned out to be 1.05. Turning to GTCACCGCGA, the switch fluorescence ratio amounted to 2.73. For CTTCAGTGAC, the switch fluorescence ratio came to 1.06. With GATAAAAAAG the figure was 0.984; with TTCAATAGGT, 0.991; with AGTCTAGTCA, 0.996. In the case of AACTGGCGCC, the switch fluorescence ratio is 1. AACGCGCCGT: the switch fluorescence ratio came to 1.06. For GGGGCTCCGA, the switch fluorescence ratio turned out to be 0.985. In the case of TCTTATCAGT, the switch fluorescence ratio came out at 0.999. For the sequence GAGATTCGCA, the switch fluorescence ratio came to 1.02.

CTGAGGCAGC: the switch fluorescence ratio is 1.9. As for AGGCTTTAGG, the switch fluorescence ratio came out at 0.993. As to TTGATTATGG, the switch fluorescence ratio stood at 0.992. With TTGATGTGAT the figure was 1; with AGGAAGCATA, 1.05; with GATGGGATAT, 0.981.

Take GGTTCGCAGG: the switch fluorescence ratio was 1.02. AGCCTGCTCG: the switch fluorescence ratio is 0.983.

For ACTTTCTAC, the switch fluorescence ratio came to 1.13. For the sequence GGGGCCGGGC, the switch fluorescence ratio was found to be 0.962. Then AATTAACTTG, with 0.987; and TAAGAAAGGC, with 0.98; and GCATACAACT, with 1.03. As to AGACAAGTTT, the switch fluorescence ratio was 0.994.

ACTCGGGCGA: the switch fluorescence ratio was determined as 1.2.

Regarding TCCGTTCTGA, the switch fluorescence ratio was determined as 1.01.

With TTACATTTCC, the switch fluorescence ratio was determined as 1.05.

For the sequence CCAGTTCTTT, the switch fluorescence ratio was 1.02.

For TCGGCTGGTA, the switch fluorescence ratio was found to be 0.968.

As for CCAAGTTCCG, the switch fluorescence ratio came to 0.991. As to TACCGACTGA, the switch fluorescence ratio amounted to 1.3. For the sequence CGCCTAGTCA, the switch fluorescence ratio is 1.01. Then TTCAGAGAGA, with 1.02; and AGGTAGTGCT, with 1.02. Take GTTGTAGGAC: the switch fluorescence ratio was 1.02. As for GTATACGCTT, the switch fluorescence ratio worked out at 0.988. Regarding CCAATTGTG, the switch fluorescence ratio worked out at 0.959. Then GATGATAGGG, with 1.03; and TATTTTATAC, with 1.04; and CAGATGAAAT, with 1.04.

As for ACTTACTGAT, the switch fluorescence ratio worked out at 1.19.

With TGTCAGATTT, the switch fluorescence ratio was found to be 0.989. With TCGCTCATCC, the switch fluorescence ratio was 1.15. As to CGTATTAGTC, the switch fluorescence ratio was determined as 1.03. As to TGCTATAGCA, the switch fluorescence ratio amounted to 0.977. For CGCGATCGGC, the switch fluorescence ratio is 1.19.
